# From the supplement of paper PMC10498489
# In all, about 2,300 compounds went through this assay and about 330 (14%) showed activity.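 The calls were made as follows: active = median modified Z-score above 1.96; inactive = 1.96 or below.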 Only a part is listed here, and it is no random draw.
# System: HepG2 Srxn1-GFP reporter cells (+30 nM CDDO-Me)
# Assay: Srxn1-GFP intensity median modified Z-score relative to plate median; higher = stronger NRF2 / oxidative stress reporter activation, active = hit call of the paper
# Conditions: 10 µM; exposure time: 24h
# Procedure, shortened: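 HepG2 Srxn1-GFP BAC reporter cells (20,000 per well, 96-well plates) were co-exposed to an NRF2 activator at 30 nM and compound at 10 μM (≤0.1% DMSO) for 24 h in three replicate plates. After formaldehyde fixation and Hoechst staining, confocal images were analysed per cell for cytoplasmic GFP, excluding images with under 100 cells. The value is the median over replicates of the per-plate modified Z-score of GFP intensity. Scaling used 1.4826 × median absolute deviation.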
row,SMILES,Srxn1-GFP intensity median modified Z-score
1,CCOC(=O)C1=C[C@]2(CC)CCCN3CCc4c(n1c1ccccc41)[C@@H]32 [euspeclibcmpd530],inactive: -0.339
2,CC(=O)c1c(O)c(C)c(O)c2c1OC1=CC(=O)C(C(C)=O)C(=O)C12C (configuration not stated) [euspeclibcmpd1449],active: 12.3
3,O=C1OC2(c3ccc(O)cc3Oc3cc(O)ccc32)c2ccccc21 [euspeclibcmpd769],active: 2.16
4,O=C1CCc2cc(OCCCCc3nnnn3C3CCCCC3)ccc2N1 [euspeclibcmpd725],inactive: 0.342
5,COc1ccc2cc1Oc1ccc(cc1)C[C@H]1c3cc(c(OC)cc3CCN1C)Oc1c(OC)c(OC)cc3c1[C@H](C2)N(C)CC3 [euspeclibcmpd1476],active: 21.7
6,CCOc1ccc(NC(N)=O)cc1,inactive: 0.32
7,CC(C)NCC(O)COc1cccc2ccccc12 (configuration not stated) [euspeclibcmpd2079],inactive: -0.525
8,CN(C)N=Nc1[nH]cnc1C(N)=O [euspeclibcmpd80],active: 60.7
9,CCC(C)n1ncn(-c2ccc(N3CCN(c4ccc(OC[C@H]5CO[C@](Cn6cncn6)(c6ccc(Cl)cc6Cl)O5)cc4)CC3)cc2)c1=O (some centres not stated) [euspeclibcmpd951],active: 2.71
10,CCCCCCc1ccc(O)cc1O [euspeclibcmpd2121],active: 3.73
11,O=C(O)c1cc(-c2ccc(F)cc2F)ccc1O [euspeclibcmpd94],inactive: -0.024
12,CCCCNC(=O)NS(=O)(=O)c1ccc(C)cc1 [euspeclibcmpd298],inactive: 0.1
13,CC(C)(C)NC[C@H](O)c1ccc(O)c(CO)c1 [euspeclibcmpd2266],inactive: -0.495
14,CCn1cc(C(=O)O)c(=O)c2cnc(N3CCCC3)nc21 [euspeclibcmpd1150],inactive: 0.482
15,O=S(=O)(O)CCS [euspeclibcmpd2094],inactive: 0.0126
16,CCCCCCCCCCCCC[N+](C)(C)Cc1ccccc1 [euspeclibcmpd590],active: 3.29
17,CC(=O)Nc1ccc(CC(=O)O)cc1 [euspeclibcmpd1102],inactive: -0.255
18,CNCCC(Oc1ccc(C(F)(F)F)cc1)c1ccccc1 (configuration not stated) [euspeclibcmpd656],inactive: -1.5
19,COc1ccc(C(=O)/C=C/c2ccccc2)cc1 [euspeclibcmpd1565],active: 26.7
20,CCN1CC(CCN2CCOCC2)C(c2ccccc2)(c2ccccc2)C1=O (configuration not stated) [euspeclibcmpd1315],inactive: -0.534
21,C=C1C(=O)O[C@@H]2C[C@@]3(C)CCC[C@H](C)C3=C[C@H]12 [euspeclibcmpd1482],active: 10.2
22,C#C[C@]1(OC(C)=O)CCC2C3CCC4=C[C@@H](OC(C)=O)CCC4C3CC[C@@]21C (some centres not stated) [euspeclibcmpd896],active: 2.28
23,CON=C(C(=O)NC1C(=O)N2C(C(=O)O)=C(COC(N)=O)CSC12)c1ccco1 (configuration not stated) [euspeclibcmpd2072],inactive: -0.532
24,O=c1c2cc(O)c(O)cc2oc2cc(O)c(C3O[C@H](CO)[C@@H](O)[C@H](O)[C@H]3O)c(O)c12 (some centres not stated) [euspeclibcmpd1520],inactive: -0.904
25,CC(=O)OC1CCC2(C)C(=CC=C3C2CCC2(C)C3CCC2C(C)/C=C/C(C)C(C)C)C1(C)C (configuration not stated) [euspeclibcmpd1343],inactive: 1.93
26,NC(N)=O [euspeclibcmpd318],inactive: -0.0793

row,SMILES,Srxn1-GFP intensity median modified Z-score
1,Cn1c([N+](=O)[O-])cnc1COC(N)=O [euspeclibcmpd407],inactive: 0.117
2,O=C(CC(=O)c1ccccc1)c1ccccc1 [euspeclibcmpd1779],active: 2.2
3,COC(=O)C(N)CS (configuration not stated) [euspeclibcmpd1038],inactive: 0.359
4,Nc1c(Br)cc(Br)cc1CNC1CCC(O)CC1 (configuration not stated) [euspeclibcmpd1118],inactive: -0.575
5,CC(N)C12CC3CC(CC(C3)C1)C2 (configuration not stated) [euspeclibcmpd797],inactive: -0.0713
6,Cc1cc(O)c(C=O)c2c1C(=O)Oc1c(COC(=O)/C=C/C(=O)O)c(O)c(C(=O)O)c(C)c1O2 [euspeclibcmpd1417],inactive: -0.65
7,OC(CCN1CCCCC1)(c1ccccc1)C1CCCCC1 (configuration not stated) [euspeclibcmpd307],inactive: 0.287
8,NCCCC(N)C(=O)O (configuration not stated) [euspeclibcmpd2233],inactive: -0.13
9,C[C@H]1[C@H]2CCC3C4CC=C5C[C@@H](N(C)C)CC[C@]5(C)C4CC[C@@]32CN1C (some centres not stated) [euspeclibcmpd1801],inactive: -0.317
10,COc1ccc2[nH]c([S+]([O-])Cc3ncc(C)c(OC)c3C)nc2c1 (configuration not stated) [euspeclibcmpd846],inactive: -0.3
11,O=S(=O)(O)CCCS(=O)(=O)O [euspeclibcmpd2416],inactive: -0.356
12,CC(=O)Nc1ccc(O)cc1 [euspeclibcmpd12],inactive: -0.102
13,CC(=O)Oc1c(C)c(C)c2c(c1C)CCC(C)(CCCC(C)CCCC(C)CCCC(C)C)O2 (configuration not stated) [euspeclibcmpd451],inactive: -0.839
14,O=C(O)c1cc(O)c(=O)c2c(O)c(O)ccc2c1 [euspeclibcmpd1973],inactive: -1.01
15,CCOC(=O)C1=C(C)N=C(C)C(C(=O)OC)C1c1cccc([N+](=O)[O-])c1 (configuration not stated) [euspeclibcmpd494],inactive: 0.225
16,OCCOCCN1CCN(C(c2ccccc2)c2ccc(Cl)cc2)CC1 (configuration not stated) [euspeclibcmpd157],inactive: 0.149
17,CC(C)COC(=O)c1ccc(N)cc1 [euspeclibcmpd937],inactive: -0.0579
18,COc1ccc(-c2coc3c(OC)c(OC)cc(O)c3c2=O)cc1 [euspeclibcmpd1614],inactive: -0.0408
19,Cc1ccccc1N1C(=O)c2cc(S(N)(=O)=O)c(Cl)cc2NC1C (configuration not stated) [euspeclibcmpd959],inactive: 0.331
20,C=C1CCC(c2cc(O)oc2O)C(=O)CCC2C1CC2(C)C (configuration not stated) [euspeclibcmpd1822],inactive: -0.357
21,Cc1cc(-n2c(=O)[nH]c(=O)n(C)c2=O)ccc1Oc1ccc(SC(F)(F)F)cc1 [euspeclibcmpd839],active: 2.22
22,CC(Oc1c(Cl)cccc1Cl)C1=NCCN1 (configuration not stated) [euspeclibcmpd482],inactive: 0.104
23,CCc1cccc2c3c([nH]c12)C(CC)(CC(=O)O)OCC3 (configuration not stated) [euspeclibcmpd365],inactive: -0.403
24,CCOc1ccc(C(=O)c2ccc(O)c(O)c2O)cc1 [euspeclibcmpd1369],inactive: 0.486
25,COc1cc(O)c(C)c(O)c1 [euspeclibcmpd1569],inactive: 0.198
26,C[N+](C)(CCOc1ccccc1)Cc1ccccc1 [euspeclibcmpd868],active: 2.62

row,SMILES,Srxn1-GFP intensity median modified Z-score
1,C=CC[C@]1(O)CCC2C3=C(C=C[C@@]21C)C1=C(CC3)CC(=O)CC1 (some centres not stated) [euspeclibcmpd848],inactive: 0.704
2,COc1ccc2[nH]cc(CCNC(C)=O)c2c1 [euspeclibcmpd1720],inactive: -0.164
3,CN1C2CCCC1CC(NC(=O)c1nn(C)c3ccccc13)C2 (configuration not stated) [euspeclibcmpd1309],inactive: -0.397
4,CCN(CC)CC#CCOC(=O)C(O)(c1ccccc1)C1CCCCC1 (configuration not stated) [euspeclibcmpd772],inactive: 1.05
5,Cc1ncc([N+](=O)[O-])n1CCO [euspeclibcmpd199],inactive: -0.216
6,OC(CCN1CCCCC1)(c1ccccc1)C1CC2C=CC1C2 (configuration not stated) [euspeclibcmpd811],inactive: -0.0967
7,CCN(Cc1ccncc1)C(=O)C(CO)c1ccccc1 (configuration not stated) [euspeclibcmpd314],inactive: -0.732
8,CC(=O)C12OC(C)(c3ccccc3)OC1CC1C3CC=C4CC(=O)CCC4(C)C3CCC12C (configuration not stated) [euspeclibcmpd1961],active: 5.88
9,CCn1cc(C(=O)O)c(=O)c2ccc(C)nc21 [euspeclibcmpd341],inactive: -0.326
10,COc1ccc2cc(CCC(C)=O)ccc2c1 [euspeclibcmpd594],inactive: 0.246
11,CCCCCC(CC(O)=NO)C(=O)NC(C(=O)N1CCCC1CO)C(C)C (configuration not stated) [euspeclibcmpd1993],active: 11.7
12,CCCCCC(C)N (configuration not stated) [euspeclibcmpd316],inactive: 0.0731
13,C#CCN(C)Cc1ccccc1 [euspeclibcmpd228],inactive: 0.0861
14,Oc1c(I)cc(I)c2cccnc12 [euspeclibcmpd2015],inactive: 1.62
15,O=C(CCCN1CC=C(n2c(=O)[nH]c3ccccc32)CC1)c1ccc(F)cc1 [euspeclibcmpd363],inactive: 0.0802
16,COc1cc([C@@H]2c3cc4c(cc3C(OC3O[C@@H]5COC(C)O[C@H]5[C@H](O)[C@H]3O)C3COC(=O)C32)OCO4)cc(OC)c1O (some centres not stated) [euspeclibcmpd356],active: 2.43
17,CCn1cc(C(=O)O)c(=O)c2cnc(N3CCNCC3)nc21 [euspeclibcmpd1020],inactive: -0.229
18,Cc1ccc(S(=O)(=O)NC(=O)NN2CC3CCCC3C2)cc1 (configuration not stated) [euspeclibcmpd1166],inactive: -0.136
19,O=c1c(O)cccc2cc(O)c(O)c(O)c12 [euspeclibcmpd1723],inactive: -0.877
20,CONC(=O)c1cc(-c2ccccc2)nc2ccccc12,inactive: 1.04
21,Cc1ncc(CSSCc2cnc(C)c(O)c2CO)c(CO)c1O [euspeclibcmpd1217],inactive: -0.667
22,CC(=O)Oc1cccc2c1C(=O)c1c(OC(C)=O)cc(C(=O)O)cc1C2=O [euspeclibcmpd1072],active: 4.68
23,Nc1ccc(C(=O)NCC(=O)O)cc1 [euspeclibcmpd518],inactive: 0.0841
24,CC1(C)OC(=O)NC1=O [euspeclibcmpd99],inactive: 0.00531
25,COc1cc(/C=C/C(=O)O)cc(OC)c1OC [euspeclibcmpd1646],inactive: -0.063
